Test results from the RNAGym collection of RNA variant scans (doi:10.1073/pnas.2313332121).
Variants at the background level are over-represented here.

B1: TPR 5TU (parent)
chain: GGAUCUUCUCGAUCUAACAAAAAAGACAAAUCUGCCACAAAGCUUGAGAGCAUCUUCGGAUGCAGAGGCGGCAGCCUUCGGUGGCGCGAUAGCGCCAACGUUCUCAACUAUGACACGCAAAACGCGUGCUCCGUUGAAUGGAGUUUAUCAUG

Variants of: B1
Test: polymerase ribozyme fitness, log enrichment relative to wild type (log ratio); higher = more active; in vitro selection for triplet polymerase activity
Method in brief: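 Fitness is a logarithmic measure of how a genotype enriched relative to the wild type, with replicate averages weighted by inverse variance. The logarithm uses base 2, and enrichment came from Illumina sequencing of input and output libraries. Those libraries were PCR-built, transcribed mutants of each subunit of a heterodimeric triplet polymerase ribozyme, passed through one triplicate in vitro selection round that included frozen incubation at −7 °C, gel excision of extended constructs and streptavidin-bead capture. Genotypes were kept only if they had ≥10 input reads and ≥1 read per output.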

Polymerase ribozyme fitness (log ratio), -4.14:
G67A C87U A107U C125G G126C

Polymerase ribozyme fitness (log ratio), -4.13:
G67A C87U
G68A A106C

Polymerase ribozyme fitness (log ratio), -3.66:
A66G C96U

Polymerase ribozyme fitness (log ratio), -3.88:
G67U C87U

Polymerase ribozyme fitness (log ratio), ≤ -4.2:
A66C C93A G126U G136C
A66C C99U G124C U144A
A66C C103G C108A G117A
A66C C123G G140A
A66C G68C A122U
A66C G74A
A66C G74U G81C C87A C118A G124A
A66C G83U
A66C G84A G141C C149A
A66C G92A
A66C G92C C118A
A66C G92U
A66C G94U
A66C G136A
A66C U82C G124U
A66C U90G C93U G94A C96A U144G
A66C U148G
A66G A73G C93U A120G
A66G A91G A110C
A66G A98U U134G
A66G A106C
A66G A113U U146G
A66G C69G A73U C76G U77C U135G A138G
A66G C69U
A66G C69U A91G C105G A120U
A66G C72G C85G G88U U127C G140U G141C
A66G C76A C129U A138C
A66G C76U C85A C96U
A66G C85A A91G U148A
A66G C85A G126C
A66G C87A A120G U127A G136A
A66G C93U A107U A138U U139A
A66G C93U C108U C132G C149A
A66G C105U A142C
A66G G68A A73C C85G A91C
A66G G70C G88A G128C A137G G140A
A66G G71U
A66G G80C G92C
A66G G81A C87U U146G
A66G G81U G84C C118G
A66G G83C A110C
A66G G84A G141C
A66G G84U G136U
A66G U77A G83U U104A G117U
A66G U78G U90C U135G
A66G U90G C93G
A66G U102A U135C
A66U C72G C125A G126C
A66U C75G U82G A106C C116U
A66U C76G C85A C95U U102G A113U C116A A142C
A66U C76U
A66U C85U C93U A115U A150C
A66U C87A A106C A138U
A66U C87A G100C A142U
A66U C87U U90G
A66U G68A A73G A97G A121C G140C
A66U G80C G84A
A66U G81A A91U A121U
A66U G81U C96U
A66U G83U U127G
A66U G84U A107C G117C U148G
A66U G86U C103A
A66U G88A U109A A122C
A66U G88U A107U U135C
A66U G94A G100U U148G
A66U U111A U139C
G67A A107G C123U A137C
G67A A119G A150U
G67A C75U C93A
G67A C75U C93A U146G
G67A C79G C93G U104G
G67A C85U A110U G124C A147U
G67A C87U A122C
G67A C99U
G67A C99U A107U G143C
G67A C103A A107G G117U
G67A C116U A138U
G67A C118U G126C
G67A G74C G94A A119G
G67A G92A A106G
G67A U82A U90C C99A G126A
G67A U144A
G67C A91C U148G
G67C A106U
G67C C69A G71U G86U U102A A121C
G67C C79A G86A C96U G124C
G67C C85G C99G G117A G133C U139C U144C U148C
G67C C93A
G67C C93G
G67C C96U A107U C118U
G67C C99U
G67C G68U U82C U90A C95U G112A G124A U146G
G67C G71C C76G G83A C87U G88U C123U G141A
G67C G88C
G67C G92A C96U C118U
G67C G92U C99U A107U U148A
G67C G94A U139A A142U
G67C U77G C85A C116U
G67C U82A G94C G133C A137C G141A A150U
G67U C72U G92A C99U
G67U C85A C93U
G67U C87G U130A
G67U C87U G152A
G67U G70C G86A C132G
G67U G81A C93G C105U
G67U G83U
G67U G88U G141C A150G
G67U G94A A121U U148A G152U
G67U G94C A119C U134G A147C
G67U U82A G83U C114G G126A G143A
G67U U109G G124A
G68A A73G C85U C87U A91U U134A G143A U148A
G68A A73U
G68A A91G
G68A A97U C118U
G68A A107C C125A G126A
G68A A119G G152U
G68A C75A A113C
G68A C75U C85G G136U U148A
G68A C76A C85U G128A C129A
G68A C76A C95U C125U
G68A C76G G94A
G68A C79U U139G U146C
G68A C85A
G68A C85A A98G C105G
G68A C85A C116U C131U U146A C149G
G68A C85G G141U
G68A C87A A107G G117U C132G
G68A C87A C105G
G68A C87A C108U C125U
G68A C87G G128U
G68A C87U A98U
G68A C93A A142U
G68A C93A C108A G143U
G68A C105G G140U U145C
G68A C105U G126A
G68A C125A
G68A G70A A106G
G68A G74C G80A G81A U148G
G68A G81A C95A A150C G152A
G68A G83A C99A
G68A G83A C116U
G68A G83C U90G C118U
G68A G83U C118G G136U
G68A G88A G140A G141C
G68A G88C A110C U135C
G68A G94U U151A
G68A U77A U82C G88A U111C U134C
G68A U77C C87G U90G A115U
G68A U82G G88U
G68A U90G C96U A115G
G68A U101A U139A U144A
G68A U104C A107G G128C
G68A U130G
G68A U151A
G68C A73G C85G A97G U101G U144C
G68C A106C C108U C116U C118A
G68C A121C

Polymerase ribozyme fitness (log ratio), -2.32:
A66G

Polymerase ribozyme fitness (log ratio), -3.46:
A66U

Polymerase ribozyme fitness (log ratio), -3.62:
A66G G83U

Polymerase ribozyme fitness (log ratio), -4.16:
G67A C76A
